# Laboratory results from the supplement of paper PMC6531468.
# Some of the results follow. Values come from read counts of a selection and are noisy. Scores sum up all selected molecules that hold the word; the word was not tested alone.
# Tested on: IMP3 KH1-2
# Assay: 6-mer SELEX enrichment z-score vs GST control; IMP3 is the RNA-binding protein IGF2BP3; higher = more enriched by binding
# Settings: construct: KH1-2 (164-376); SELEX round: R4
# Experimental: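 SELEX-seq with GST-tagged IMP3 KH1-2 (Pro164-Phe376) and an N40 RNA pool, round 4 (stringent 300/600 mM KCl washes). 6-mer z-score of sequence-tag enrichment normalised to the corresponding GST SELEX round; RNA k-mers written as DNA (T for U).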
# Chain of IMP3 KH1-2 (chain, as listed by the source): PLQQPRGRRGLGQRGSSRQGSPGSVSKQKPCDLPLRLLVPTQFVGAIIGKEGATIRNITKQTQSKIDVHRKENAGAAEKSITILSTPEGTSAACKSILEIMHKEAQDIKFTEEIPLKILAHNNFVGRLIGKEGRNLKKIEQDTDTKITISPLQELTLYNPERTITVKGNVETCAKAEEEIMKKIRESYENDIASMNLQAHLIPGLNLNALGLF
row,Sequence,6-mer SELEX enrichment z-score
1,CGAGAT,-0.916
2,AGAAGA,0.625
3,TCCGGC,0.206
4,CGTCAT,-0.12
5,CTCACG,-0.848
6,TTTAGA,0.351
7,AACCGT,-0.664
8,CATGTT,0.284
9,ATAGAA,1.47
10,CGCCTA,-0.431
11,CAAACT,-0.105
12,ATCATG,0.673
13,AAGAAC,-0.136
14,AAGACT,-0.319
15,AATTAG,0.464
16,GTGTGC,0.24
17,CGCCGA,-0.975
18,GAAAGG,0.076
19,TTAAAC,0.502
20,GGTGGC,0.705

row,Sequence,6-mer SELEX enrichment z-score
1,TCTGAA,-0.12
2,CCTTTA,0.6
3,TGATCC,-0.195
4,GTCGGG,0.497
5,CGGCCG,0.797
6,GTCCGA,-0.873
7,TGGACG,-0.136
8,GACCAT,0.044
9,CAGATT,0.898
10,TTAATG,0.643
11,GTGTAA,-0.386
12,CTCGGT,-0.332
13,GAGCAA,-1.25
14,CGGCAA,0.99
15,ACTAAA,0.587
16,GAATCA,0.311
17,AGTCAT,0.347
18,GTGTCT,-0.14
19,TATCTG,0.161

# Tested on: IMP3 KH3-4
# Sequence (chain, as listed by the source): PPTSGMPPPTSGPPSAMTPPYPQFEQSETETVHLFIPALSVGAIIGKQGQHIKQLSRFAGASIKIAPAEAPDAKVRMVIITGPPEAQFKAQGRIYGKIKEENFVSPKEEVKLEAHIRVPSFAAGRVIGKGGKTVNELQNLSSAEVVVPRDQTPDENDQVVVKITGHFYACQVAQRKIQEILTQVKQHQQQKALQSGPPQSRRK
# Assay: as above
# Settings: construct: KH3-4 (377-579); SELEX round: R4
# Experimental: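 SELEX-seq with GST-tagged IMP3 KH3-4 (Pro377-Lys579) and an N40 RNA pool, round 4. 6-mer z-score of sequence-tag enrichment normalised to the corresponding GST SELEX round; RNA k-mers written as DNA (T for U).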
row,Sequence,6-mer SELEX enrichment z-score
1,CGAGAT,-0.766
2,AGAAGA,1.47
3,TCCGGC,0.107
4,CGTCAT,-0.081
5,CTCACG,-1.07
6,TTTAGA,0.963
7,AACCGT,-1.15
8,CATGTT,0.41
9,ATAGAA,2.41
10,CGCCTA,-0.589
11,CAAACT,-0.477
12,ATCATG,0.706
13,AAGAAC,0.479
14,AAGACT,-0.073
15,AATTAG,1.21
16,GTGTGC,0.219
17,CGCCGA,-1.27
18,GAAAGG,0.579
19,TTAAAC,1.18
20,GGTGGC,0.689

row,Sequence,6-mer SELEX enrichment z-score
1,TCTGAA,-0.118
2,CCTTTA,0.526
3,TGATCC,-0.372
4,GTCGGG,0.527
5,CGGCCG,0.651
6,GTCCGA,-0.896
7,TGGACG,-0.193
8,GACCAT,-0.114
9,CAGATT,0.937
10,TTAATG,1.41
11,GTGTAA,-0.082
12,CTCGGT,-0.234
13,GAGCAA,-1.13
14,CGGCAA,1.57
15,ACTAAA,1.16
16,GAATCA,0.428
17,AGTCAT,0.508
18,GTGTCT,-0.004
19,TATCTG,0.147
